# Laboratory results: PubChem BioAssay (NCATS)
# Values joined by “and” are separate entries in the source; they are usually repeats but may differ in a detail not shown here. Equal values may be shown once. Inconclusive results, whose numbers are uncertain, are shown with a selection of clear calls. For some of these results: A potency beside an inconclusive call is a rough fit, not a confirmed value. Active and inactive are the calls of the source. Unless noted, calls follow the shape of the dose curve; as a rule, active = well fitted curve in the direction sought with a large enough effect; inconclusive = small, poorly fitted or top-dose-only effect, or another doubt; inactive = no such curve, though single readings can be large; an effect the other way counts as inactive or inconclusive.
# Tests used:
# [1] = Viability qHTS for spleen associated tyrosine kinase inhibitor (SYKi) naive MV4-11 cells (AID 1963823); also: nearly all actives have a fitted effect of over 40% in size; also: potency is read from the fitted curve at half-maximal effect
# Method in brief: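 SYK inhibitor-naive MV4-11 cells, 500 per well, exposed to compounds for 72 hr at 37 C, 5% CO2. Viability read as CellTiter-Glo luminescence after 10 min at room temperature.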
# [2] = target: Polyprotein P1234 (Chikungunya virus (strain S27-African prototype)) (UniProt Q8JUX6); assay: Selectivity profile for inhibitors of NSP2Pro chikungunya virus (CHIKV): Endogenous NS2/3 peptide Counterscreen (AID 1964103; calls by dose curve; also: nearly all actives have a fitted effect of over 55% in size; also: potency is read from the fitted curve at half-maximal effect; as to activity change, negative = inhibition: % is scaled to controls: 0 for no effect and ±100 for the full control effect)
# [3] = target: Polyprotein P1234 (Chikungunya virus (strain S27-African prototype)) (UniProt Q8JUX6); assay: Selectivity profile for inhibitors of NSP2Pro chikungunya virus (CHIKV): Full length NSP2 enzyme counterscreen (CHIKV-NSP2) (AID 1964101; calls by dose curve; also: potency is read from the fitted curve at half-maximal effect; nearly all actives have a fitted effect of over 65% in size); conditions: Full-length CHIKV NSP2 protease enzymatic counterscreen; activity change, negative = inhibition: at 50.7 µM (top of the series)
# [4] = target: Papain (Carica papaya) (UniProt P00784); assay: Selectivity profile for inhibitors of NSP2Pro chikungunya virus (CHIKV): Papain Counterscreen (AID 1964104; calls by dose curve; also: potency is read from the fitted curve at half-maximal effect)
# [5] = tested on: Chikungunya virus nsP2 protease; assay: Confirmatory qHTS for inhibitors of NSP2Pro chikungunya virus (CHIKV) (AID 1964105; calls by dose curve; also: potency is read from the fitted curve at half-maximal effect; nearly all actives have a fitted effect of over 75% in size)
# [6] = Viability qHTS for spleen associated tyrosine kinase inhibitor (SYKi) drug resistant MV4-11 cells (AID 1963824); also: nearly all actives have a fitted effect of over 35% in size; also: potency is read from the fitted curve at half-maximal effect
# Method in brief: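 SYK inhibitor-resistant MV4-11 AML cells, 500 per well, added to predispensed compounds and incubated 72 hr at 37 C, 5% CO2. Viability measured by CellTiter-Glo luminescence after 10 min at room temperature.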
# [7] = Cellular viability qHTS for adrenocortical cancer (ACC) cell line NCI-H295R (AID 1963990); conditions: CellTiter-Glo ATP luminescence, 48 h; activity change, negative = viability loss: at 46.1 µM (top of the series); also: nearly all actives have a fitted effect of over 60% in size; also: potency is read from the fitted curve at half-maximal effect;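 as to activity change, negative = viability loss: 0% = DMSO only wells and -100% = full killing with cytotoxic reference compound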
# Method in brief: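 CellTiter-Glo ATP luminescence, read 48 h after compound addition, measured viability of NCI-H295R adrenocortical cells grown serum-free with ITS. Final concentrations spanned up to 46 uM. Data normalized to DMSO and doxorubicin, fitted for IC50 and maximal response.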
# [8] = Cellular viability qHTS for adrenocortical cancer (ACC) cell line SW-13 (AID 1963989); conditions: SW-13 ACC cells viability, CellTiter-Glo, 48 h; activity (max response): stronger effect = lower value; also: nearly all actives have a fitted effect of over 65% in size; also: potency is read from the fitted curve at half-maximal effect;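 as to activity (max response): cells grown in serum-free medium with ITS supplement; % is scaled to controls: 0 for no effect and ±100 for the full control effect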
# Method in brief: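 Viability was read as CellTiter-Glo luminescence after 48 h compound treatment (up to 46 uM final) of SW-13 cells grown serum-free; titration curves were fit with a four-parameter logistic model to give IC50 and efficacy.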
# [9] = Quantitative highthroughput screen to assess conditional lethalithy of NOMO1 cells grown in RPMI1640 with dialyzed fetal bovine serum (RPMI+ds) (AID 1963877); also: nearly all actives have a fitted effect of over 30% in size; also: potency is read from the fitted curve at half-maximal effect;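 as to Viability: 100% = DMSO control wells and 0% = empty wells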
# Method in brief: (§1)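 Each medium arm—HPLM with 10% dialyzed FBS, or RPMI1640 with 5 mM glucose and 10% untreated or dialyzed FBS—was screened against an 11-point, 3-fold compound titration for 48 h at 37 °C, with CellTiter-Glo luminescence as endpoint.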
# [10] = Quantitative highthroughput screen to assess conditional lethalithy of NOMO1 cells grown in Human Plasma-Like Medium with dialyzed fetal bovine serum (HPLM+ds) (AID 1963878); also: nearly all actives have a fitted effect of over 35% in size; also: potency is read from the fitted curve at half-maximal effect;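 as to Viability: 100% = DMSO wells and 0% = empty wells on each plate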
# Method in brief: as §1
# [11] = Quantitative highthroughput screen to assess conditional lethalithy of P12 Ichikawa cells grown in RPMI1640 with dialyzed fetal bovine serum (RPMI+ds) (AID 1963880); conditions: Potency: P12-Ichikawa viability; also: nearly all actives have a fitted effect of over 35% in size; also: potency is read from the fitted curve at half-maximal effect;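 as to Viability: 100% = DMSO wells and 0% = empty wells on each plate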
# Method in brief: as §1
# [12] = Quantitative highthroughput screen to assess conditional lethalithy of P12 Ichikawa cells grown in Human Plasma-Like Medium with dialyzed fetal bovine serum (HPLM+ds) (AID 1963879); conditions: Potency: viability; also: nearly all actives have a fitted effect of over 35% in size
# Method in brief: as §1
# [13] = Quantitative highthroughput screen to assess conditional lethalithy of SEM cells grown in RPMI1640 with dialyzed fetal bovine serum (RPMI+ds) (AID 1963884); also: nearly all actives have a fitted effect of over 35% in size; also: potency is read from the fitted curve at half-maximal effect;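 as to Viability: 100% = DMSO control wells and 0% = empty wells without cells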
# Method in brief: as §1
# [14] = Quantitative highthroughput screen to assess conditional lethalithy of SEM cells grown in RPMI1640 with unreated serum (RPMI+s) (AID 1963883)
# Method in brief: as §1
# [15] = Quantitative highthroughput screen to assess conditional lethalithy of NOMO1 cells grown in RPMI1640 with untreated serum (RPMI+s) (AID 1963876)
# Method in brief: as §1
# [16] = Quantitative highthroughput screen to assess conditional lethalithy of P12 Ichikawa cells grown in RPMI1640 with untreated serum (RPMI+s) (AID 1963881); conditions: Potency: viability
# Method in brief: as §1
# Tags tell the direction and shape of the fitted curve.
# Sequence of UniProt Q8JUX6 (Q8JUX6 whole entry, looked up): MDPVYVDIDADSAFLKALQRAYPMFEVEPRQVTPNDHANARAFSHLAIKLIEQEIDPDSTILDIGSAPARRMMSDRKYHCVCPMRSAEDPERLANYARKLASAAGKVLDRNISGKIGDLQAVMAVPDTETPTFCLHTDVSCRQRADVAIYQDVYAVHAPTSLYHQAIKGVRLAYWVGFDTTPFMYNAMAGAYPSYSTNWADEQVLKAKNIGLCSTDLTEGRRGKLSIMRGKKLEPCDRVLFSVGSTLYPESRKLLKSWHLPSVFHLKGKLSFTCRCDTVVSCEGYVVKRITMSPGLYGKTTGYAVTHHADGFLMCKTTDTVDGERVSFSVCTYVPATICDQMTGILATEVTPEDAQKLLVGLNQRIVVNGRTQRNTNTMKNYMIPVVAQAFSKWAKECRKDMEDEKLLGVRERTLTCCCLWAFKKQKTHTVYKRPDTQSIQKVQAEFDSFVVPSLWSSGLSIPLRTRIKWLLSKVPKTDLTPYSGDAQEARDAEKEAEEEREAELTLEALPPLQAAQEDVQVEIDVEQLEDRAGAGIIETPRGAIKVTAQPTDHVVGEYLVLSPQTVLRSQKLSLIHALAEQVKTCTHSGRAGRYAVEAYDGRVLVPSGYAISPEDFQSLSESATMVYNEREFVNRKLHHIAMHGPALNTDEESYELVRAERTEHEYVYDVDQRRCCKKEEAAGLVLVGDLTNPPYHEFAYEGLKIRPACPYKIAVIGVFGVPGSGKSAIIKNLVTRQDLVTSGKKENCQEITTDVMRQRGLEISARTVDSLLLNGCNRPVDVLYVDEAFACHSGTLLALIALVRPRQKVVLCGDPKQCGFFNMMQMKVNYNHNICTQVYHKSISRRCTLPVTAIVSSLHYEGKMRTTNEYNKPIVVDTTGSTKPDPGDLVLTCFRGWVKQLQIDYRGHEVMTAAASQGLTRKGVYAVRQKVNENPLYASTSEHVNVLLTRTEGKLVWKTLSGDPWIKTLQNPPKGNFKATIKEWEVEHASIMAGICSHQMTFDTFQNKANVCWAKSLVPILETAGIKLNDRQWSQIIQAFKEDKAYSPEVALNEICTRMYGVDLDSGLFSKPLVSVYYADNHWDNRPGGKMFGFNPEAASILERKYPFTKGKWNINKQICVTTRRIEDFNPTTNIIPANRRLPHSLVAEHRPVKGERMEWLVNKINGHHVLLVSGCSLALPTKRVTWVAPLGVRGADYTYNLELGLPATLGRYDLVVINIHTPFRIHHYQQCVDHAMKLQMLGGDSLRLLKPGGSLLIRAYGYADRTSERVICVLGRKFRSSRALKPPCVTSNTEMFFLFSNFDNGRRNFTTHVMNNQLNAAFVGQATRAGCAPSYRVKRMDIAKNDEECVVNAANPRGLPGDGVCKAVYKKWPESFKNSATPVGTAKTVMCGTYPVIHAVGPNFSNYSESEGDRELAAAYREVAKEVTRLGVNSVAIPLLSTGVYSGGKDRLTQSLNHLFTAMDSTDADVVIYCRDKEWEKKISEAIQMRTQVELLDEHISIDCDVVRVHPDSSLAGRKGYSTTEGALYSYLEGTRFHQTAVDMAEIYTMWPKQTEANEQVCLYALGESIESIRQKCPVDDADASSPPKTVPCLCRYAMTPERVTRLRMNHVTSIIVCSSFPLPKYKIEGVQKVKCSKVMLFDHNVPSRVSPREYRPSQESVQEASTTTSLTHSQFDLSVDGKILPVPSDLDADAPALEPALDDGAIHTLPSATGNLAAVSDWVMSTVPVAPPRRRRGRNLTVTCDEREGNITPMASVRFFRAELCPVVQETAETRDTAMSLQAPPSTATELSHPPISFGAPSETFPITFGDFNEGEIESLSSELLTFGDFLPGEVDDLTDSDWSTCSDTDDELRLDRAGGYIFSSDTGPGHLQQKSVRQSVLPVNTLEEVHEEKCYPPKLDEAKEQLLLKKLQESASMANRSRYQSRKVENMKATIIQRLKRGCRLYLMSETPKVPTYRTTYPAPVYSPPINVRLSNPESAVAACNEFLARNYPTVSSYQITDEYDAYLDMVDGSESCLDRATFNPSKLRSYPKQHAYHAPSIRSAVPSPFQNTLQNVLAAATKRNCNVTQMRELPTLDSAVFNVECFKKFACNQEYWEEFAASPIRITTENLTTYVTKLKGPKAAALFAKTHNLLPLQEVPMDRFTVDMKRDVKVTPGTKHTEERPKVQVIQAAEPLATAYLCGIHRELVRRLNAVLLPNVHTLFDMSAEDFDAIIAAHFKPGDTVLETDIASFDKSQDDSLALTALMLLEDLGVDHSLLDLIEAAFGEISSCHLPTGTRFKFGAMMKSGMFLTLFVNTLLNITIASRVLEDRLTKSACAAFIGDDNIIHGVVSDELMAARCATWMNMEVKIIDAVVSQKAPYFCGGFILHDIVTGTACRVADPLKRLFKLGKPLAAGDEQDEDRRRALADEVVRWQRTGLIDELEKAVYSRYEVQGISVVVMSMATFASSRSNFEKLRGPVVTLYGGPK
# Sequence of UniProt P00784 (P00784 whole entry, looked up): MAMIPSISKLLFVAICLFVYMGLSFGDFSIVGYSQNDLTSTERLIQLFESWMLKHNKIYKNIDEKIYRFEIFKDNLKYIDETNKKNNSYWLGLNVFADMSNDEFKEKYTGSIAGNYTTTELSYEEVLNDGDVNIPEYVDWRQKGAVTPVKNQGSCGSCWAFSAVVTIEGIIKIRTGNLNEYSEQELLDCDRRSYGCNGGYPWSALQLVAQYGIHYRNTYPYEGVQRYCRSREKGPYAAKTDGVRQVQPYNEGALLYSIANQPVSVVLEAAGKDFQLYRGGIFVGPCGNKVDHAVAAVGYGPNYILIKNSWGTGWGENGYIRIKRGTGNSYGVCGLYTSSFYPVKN
structure (smiles),measurement,setting,value
CC(=O)OC1CC(O)C2(C)C(CC(OC(C)=O)C3(C)C2CCC2(C)C(c4ccoc4)C(=O)C4OC423)C1(C)C (configuration not stated),Potency,[1],"inconclusive: 15.9 µM [cytotoxic, single point]"
same,Potency,[2],inactive
CCC(C)/C=C(C)/C=C/C1=CC2=C(Cl)C(=O)C(C)(OC(C)=O)C(=O)C2=CO1 (configuration not stated),Potency,[1],inactive
same,Potency,[3],"inconclusive: 11.3 µM [inhibitor, partial curve]"
same,Potency,[2],"inconclusive: 16 µM [inhibitor, partial curve]"
same,Potency,[4],"inconclusive: 16 µM [inhibitor, partial curve]"
same,Potency,[5],"inconclusive: 11.1 µM [inhibitor, partial curve]"
OCCCBr,Potency,[6],"inconclusive: 0.077 µM [cytotoxic, full curve, poor fit]"
N#CC(OC1OC(COC2OC(CO)C(O)C(O)C2O)C(O)C(O)C1O)c1ccccc1 (configuration not stated),Potency,[6],inactive
Clc1ccc(COC(Cn2ccnc2)c2ccc(Cl)cc2Cl)cc1 (configuration not stated),Potency,[6],"inconclusive: 5.31 µM [cytotoxic, full curve]"
C[C@]12CC[C@H](O[C@@H]3O[C@H](CO)[C@@H](O)[C@H](O)[C@H]3O)CC1=CC[C@@H]1C2CC[C@]2(C)[C@@H](C3=CC(=O)OC3)CC[C@]12O (some centres not stated),Potency,[6],"inconclusive: 1.37 µM [cytotoxic, full curve]"
CC(C)=CC1C(C(=O)OCc2cccc(Oc3ccccc3)c2)C1(C)C (configuration not stated),Potency,[6],"inconclusive: 33.5 µM [cytotoxic, single point]"
C[C@H]1O[C@@H](O[C@H]2CC[C@]3(C=O)C4CC[C@]5(C)[C@@H](C6=CC(=O)OC6)CC[C@]5(O)[C@@H]4CC[C@]3(O)C2)C[C@@H](O)[C@@H]1O (some centres not stated),Potency,[6],"inconclusive: 0.0355 µM [cytotoxic, full curve]"
CCC1NC(=O)C2C(Cl)C(Cl)CN2C(=O)C(C(C)O)NC(=O)CC(c2ccccc2)NC(=O)C(CO)NC1=O (configuration not stated),Potency,[6],inactive
CC(C)(C)NC[C@H](O)c1ccc(O)cc1Cl,Potency,[1],inactive
same,Potency,[7],inactive
Cc1c(Cl)c(=O)oc2cc(OP(=O)(OCCCl)OCCCl)ccc12,Potency,[6],"inconclusive: 23.7 µM [cytotoxic, partial curve]"
C#CCOC(C(=O)OCCN(C)C)(c1ccccc1)c1ccccc1,Potency,[6],inactive
COC(=O)C1=CCCN(C)C1,Potency,[6],inactive
same,activity (max response),[8],inactive: 1.83%
CC(Cc1ccccc1)N(C)Cc1ccco1 (configuration not stated),Potency,[6],inactive
same,activity (max response),[8],inactive: -0.53%
Cc1c(Cl)c(OCC(=O)N2CCN(C)CC2)nc2sc(C(=O)NC3CC3)c(N)c12,Potency,[6],inactive
CC1(C)C(=O)N(c2ccc(C#N)c(C(F)(F)F)c2)C(=S)N1Cc1ccc(-c2cn[nH]n2)cc1,Potency,[6],active: 14.8 µM
same,Potency,[7],"inconclusive: 25.1 µM [cytotoxic, partial curve]"
CC(Cc1ccc(O)cc1)NCC(O)c1cc(O)cc(O)c1 (configuration not stated),Potency,[6],inactive
same,Potency,[7],inactive
CN1C(=O)CCS(=O)(=O)C1c1ccc(Cl)cc1 (configuration not stated),Potency,[6],inactive
same,Potency,[9],"inconclusive: 37.2 µM [cytotoxic, single point]"
same,Potency,[10],"inconclusive: 20.9 µM [cytotoxic, partial curve]"
same,Potency,[11],inactive
C[C@H]1[C@@H]2Cc3ccc(O)cc3[C@@]1(C)CCN2C,Potency,[6],"inconclusive: 36.8 µM [cytotoxic, partial curve, poor fit]"
same,activity (max response),[8],inactive: -10.9%
NC(=O)[C@@H](CC1CC1)[C@@H](CCC(F)(F)F)C(=O)N[C@H]1N=C(c2ccccc2)c2cccc(F)c2NC1=O,Potency,[6],"inconclusive: 11.6 µM [cytotoxic, partial curve, poor fit]"
same,Potency,[7],inactive
NCC1(CC(=O)O)CCCCC1,Potency,[6],"inactive and inconclusive: 590 nM [cytotoxic, full curve, poor fit]"
same,Potency,[9],inactive
same,Potency,[10],inactive
same,Potency,[12],inactive
same,Potency,[13],inactive
COc1ccc(C(=O)c2c(C)n(CCN3CCOCC3)c3ccccc23)cc1,Potency,[6],active: 16.6 µM
same,Potency,[11],inactive
same,Potency,[14],inactive
same,Potency,[8],"inconclusive: 25.9 µM [cytotoxic, single point]"
Cc1ccccc1-n1c(Cn2cnc3c(N)ncnc32)nc2cccc(C)c2c1=O,Potency,[6],"inconclusive: 14.8 µM [cytotoxic, partial curve]"
same,Potency,[15],"inconclusive: 2.64 µM [cytotoxic, full curve]"
same,Potency,[9],"inconclusive: 1.66 µM [cytotoxic, full curve]"
same,Potency,[10],"inconclusive: 0.743 µM [cytotoxic, partial curve]"
same,Potency,[12],inactive
same,Potency,[11],"inconclusive: 2.96 µM [cytotoxic, full curve]"
same,Potency,[16],"inconclusive: 4.18 µM [cytotoxic, partial curve]"
same,Potency,[13],"inconclusive: 1.18 µM [cytotoxic, partial curve]"
